Consider 109 sequences from PMC5836133.

The other results are listed elsewhere or left out. At the low end of the ranking the order means little.

The test concerns T1, GST-NbGlk1(82-244).
T1 sequence: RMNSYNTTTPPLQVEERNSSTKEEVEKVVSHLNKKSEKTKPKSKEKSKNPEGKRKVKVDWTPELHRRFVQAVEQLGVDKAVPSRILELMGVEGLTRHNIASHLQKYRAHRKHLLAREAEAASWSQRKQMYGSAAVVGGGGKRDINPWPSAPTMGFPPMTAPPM
The test is described as follows: protein-binding microarray.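 Note: rank-based score ranging −0.5 to +0.5 with E above 0.45 taken as significant binding.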 The settings on record: NbGlk1 is a Golden2-like transcription factor of Nicotiana benthamiana; high values mean tight binding; most listed sequences are background and not binding sites; double strand, one strand shown.
In turn, AGTAAATA came in with a binding signal of 0.161 E-score. Under ACCGCTAC stands -0.258 E-score; under AATATGAA, 0.279 E-score. Under AAGCTGCC stands -0.268 E-score; under ATATGGCA, 0.176 E-score. Under ACGGGAAG stands -0.211 E-score. In the case of CAGACGGG, the binding signal was -0.188 E-score. CACCTAAC had a binding signal of -0.0187 E-score.

In the case of ACAGCCGC, the binding signal was -0.291 E-score. For ACGTATGC, the binding signal is -0.14 E-score. Take ACGAGCAA: the binding signal was -0.0637 E-score. Under AAGAATTC stands 0.183 E-score; under AATGCGGA, -0.049 E-score.

Turning to AACTCCAG, the binding signal is -0.181 E-score. ATAGTTTC registered a binding signal of 0.0303 E-score.

As to CACGTCTC, the binding signal is -0.233 E-score. Under AATTCTGA stands 0.167 E-score; under AGGACGAA, -0.178 E-score. In the case of CACAACCA it was -0.0443 E-score. In the case of AGCGACTA it was -0.125 E-score; in that of AATTAGGT, 0.00171 E-score. Consider AACACGGA, for which the binding signal stood at 0.0655 E-score. As to CAGCATTC, the binding signal is -0.195 E-score. AAGCGTAC gave a binding signal of -0.193 E-score. Consider AATAACCG, for which the binding signal is 0.0784 E-score. In the case of AATAGTGT, the binding signal is -0.0793 E-score.

The sequence ACTCTAGG returned a binding signal of -0.124 E-score. Under AGCAAACT stands -0.0756 E-score. Turning to CACATGCC, the binding signal was -0.136 E-score. For the sequence CAGCGATG, the binding signal was -0.144 E-score. With AGGGCGTC, the binding signal was -0.3 E-score. In the case of ATGTTTTG it was -0.00544 E-score; in that of AACTTGTC, -0.169 E-score. As for ACCGCGGT, the binding signal is -0.211 E-score. Under AAGCTACA stands -0.0722 E-score; under ATTCTGCC, 0.175 E-score.

ATCTCGAC had a binding signal of 0.34 E-score. Under AACCCGCC stands -0.0801 E-score. Under AGCCTGTC stands -0.182 E-score. In the case of ACCATCAG it was -0.128 E-score. On to AAGTAGAA, for which the binding signal was determined as 0.0239 E-score. For AGTCGAGG, the binding signal was -0.284 E-score. In the case of AGGAGCAA it was -0.155 E-score; in that of AGCAAGCT, -0.296 E-score; in that of ATAACACA, 0.128 E-score. Under AGCAGAAC stands 0.0215 E-score. In the case of AAGGATAG it was -0.0238 E-score; in that of AGCCGGGG, -0.218 E-score. CAGCACGG: the binding signal is -0.128 E-score.

In the case of ATCGGGTG, the binding signal is -0.0118 E-score. In the case of AAATAATT it was 0.159 E-score; in that of ATAGGTGG, -0.154 E-score. In the case of CAAGTTGA it was -0.0184 E-score. In the case of ATAATGAA it was 0.101 E-score; in that of ACACCTTG, -0.167 E-score; in that of AAACCTGC, -0.17 E-score. In turn, AGTGCATA showed a binding signal of -0.0501 E-score. Regarding ACGACTTC, the binding signal was -0.126 E-score. For AGGCTAAC, the binding signal is -0.088 E-score. In the case of AATAGCGT it was 0.00745 E-score; in that of AGGTCCCG, -0.313 E-score; in that of AGTTTTCC, 0.0285 E-score. Under AAAAGTAA stands 0.0249 E-score; under ACAAATTA, 0.168 E-score. Under CAAAAATC stands 0.399 E-score; under AATCTACT, 0.406 E-score. CAATGTAA yielded a binding signal of 0.159 E-score.

For the sequence AACGGCGT, the binding signal is -0.134 E-score. ATGACGCA yielded a binding signal of -0.0979 E-score. Under ACAAACGC stands -0.0382 E-score; under CAGCCTCA, -0.105 E-score; under ATCTTGTA, 0.28 E-score.

In turn, ACGACGTC returned a binding signal of -0.0743 E-score.

As to ATGTATAG, the binding signal is -0.0116 E-score. Under ACTTCATG stands -0.201 E-score; under ATATTATG, 0.166 E-score; under AATACTGA, 0.171 E-score.

On to ACCATAAC, for which the binding signal amounted to 0.00142 E-score. Regarding ACCATCTG, the binding signal was -0.0603 E-score. With ACTACCGC, the binding signal is -0.169 E-score. Under ATCACCCA stands 0.0598 E-score; under AACGGTGG, -0.064 E-score; under ACCGAGAG, -0.0769 E-score. In the case of AGGGCGTA it was -0.0544 E-score. On to ACATTACG, for which the binding signal amounted to 0.0909 E-score. As for AACCCAAC, the binding signal was -0.0483 E-score. Take AACGGGTC: the binding signal was -0.414 E-score. Regarding ACCATGTC, the binding signal was -0.247 E-score.

On to ATAGTAAT, for which the binding signal came out at 0.315 E-score. Regarding AAAGCCTG, the binding signal was -0.0597 E-score. AAATCATC: the binding signal is 0.235 E-score. In turn, ACGGGGAA displayed a binding signal of 0.0143 E-score. AGTTACCG had a binding signal of -0.0511 E-score. Under AAAGCCGA stands 0.0603 E-score; under ATTTTATG, 0.188 E-score; under ATTAGGCA, 0.108 E-score. As for AACCGGTT, the binding signal was -0.0854 E-score. In the case of AGGCCTAA it was -0.223 E-score. In the case of AAGTGCCC it was -0.14 E-score. Under ACGGTGGA stands 0.0435 E-score; under CACTGTGC, -0.287 E-score.

As for ACTTCTGC, the binding signal was -0.166 E-score. In the case of ACCGATCC it was 0.0708 E-score. With AAATGAAT, the binding signal turned out to be 0.257 E-score. AGCGTGAG gave a binding signal of -0.228 E-score.

In the case of AGCGCCAC, the binding signal is -0.261 E-score. Consider AAGGTCGA, for which the binding signal is -0.0622 E-score. Under AAAATCAC stands 0.36 E-score; under CACTGAAC, -0.0448 E-score.
